# Measured values taken from the supplement of paper PMC12423691.
# Some of the results follow. Binding of human transcription factors and regulators to the viral nucleoprotein by AlphaScreen, crude cell-free proteins, amounts not normalised, one pass. Fold of the Venus control; higher = more signal. No active / inactive call. Single-pass screen; sequences are the whole Swiss-Prot entries looked up by name.
# B1: DAP, P51397 (protein)
# chain: MSSPPEGKLETKAGHPPAVKAGGMRIVQKHPHTGDTKEEKDKDDQEWESPSPPKPTVFISGVIARGDKDFPPAAAQVAHQKPHASMDKHPSPRTQHIQQPRK
# B2: ZCCHC11, Q5TAX3 (protein)
# chain: MEESKTLKSENHEPKKNVICEESKAVQVIGNQTLKARNDKSVKEIENSSPNRNSSKKNKQNDICIEKTEVKSCKVNAANLPGPKDLGLVLRDQSHCKAKKFPNSPVKAEKATISQAKSEKATSLQAKAEKSPKSPNSVKAEKASSYQMKSEKVPSSPAEAEKGPSLLLKDMRQKTELQQIGKKIPSSFTSVDKVNIEAVGGEKCALQNSPRSQKQQTCTDNTGDSDDSASGIEDVSDDLSKMKNDESNKENSSEMDYLENATVIDESALTPEQRLGLKQAEERLERDHIFRLEKRSPEYTNCRYLCKLCLIHIENIQGAHKHIKEKRHKKNILEKQEESELRSLPPPSPAHLAALSVAVIELAKEHGITDDDLRVRQEIVEEMSKVITTFLPECSLRLYGSSLTRFALKSSDVNIDIKFPPKMNHPDLLIKVLGILKKNVLYVDVESDFHAKVPVVVCRDRKSGLLCRVSAGNDMACLTTDLLTALGKIEPVFIPLVLAFRYWAKLCYIDSQTDGGIPSYCFALMVMFFLQQRKPPLLPCLLGSWIEGFDPKRMDDFQLKGIVEEKFVKWECNSSSATEKNSIAEENKAKADQPKDDTKKTETDNQSNAMKEKHGKSPLALETPNRVSLGQLWLELLKFYTLDFALEEYVICVRIQDILTRENKNWPKRRIAIEDPFSVKRNVARSLNSQLVYEYVVERFRAAYRYFACPQTKGGNKSTVDFKKREKGKISNKKPVKSNNMATNGCILLGETTEKINAEREQPVQCDEMDCTSQRCIIDNNNLLVNELDFADHGQDSSSLSTSKSSEIEPKLDKKQDDLAPSETCLKKELSQCNCIDLSKSPDPDKSTGTDCRSNLETESSHQSVCTDTSATSCNCKATEDASDLNDDDNLPTQELYYVFDKFILTSGKPPTIVCSICKKDGHSKNDCPEDFRKIDLKPLPPMTNRFREILDLVCKRCFDELSPPCSEQHNREQILIGLEKFIQKEYDEKARLCLFGSSKNGFGFRDSDLDICMTLEGHENAEKLNCKEIIENLAKILKRHPGLRNILPITTAKVPIVKFEHRRSGLEGDISLYNTLAQHNTRMLATYAAIDPRVQYLGYTMKVFAKRCDIGDASRGSLSSYAYILMVLYFLQQRKPPVIPVLQEIFDGKQIPQRMVDGWNAFFFDKTEELKKRLPSLGKNTESLGELWLGLLRFYTEEFDFKEYVISIRQKKLLTTFEKQWTSKCIAIEDPFDLNHNLGAGVSRKMTNFIMKAFINGRKLFGTPFYPLIGREAEYFFDSRVLTDGELAPNDRCCRVCGKIGHYMKDCPKRKSLLFRLKKKDSEEEKEGNEEEKDSRDVLDPRDLHDTRDFRDPRDLRCFICGDAGHVRRECPEVKLARQRNSSVAAAQLVRNLVNAQQVAGSAQQQGDQSIRTRQSSECSESPSYSPQPQPFPQNSSQSAAITQPSSQPGSQPKLGPPQQGAQPPHQVQMPLYNFPQSPPAQYSPMHNMGLLPMHPLQIPAPSWPIHGPVIHSAPGSAPSNIGLNDPSIIFAQPAARPVAIPNTSHDGHWPRTVAPNSLVNSGAVGNSEPGFRGLTPPIPWEHAPRPHFPLVPASWPYGLHQNFMHQGNARFQPNKPFYTQDRCATRRCRERCPHPPRGNVSE
# Molecular target: nucleoprotein N of Crimean-Congo hemorrhagic fever virus
# Assay: AlphaScreen luminescence signal relative to Venus negative control (fold); higher = stronger binding to CCHFV N
# Protocol: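 AlphaScreen binding of cell-free made, FLAG-GST-tagged human transcription factors and regulators (crude translation products) to biotinylated N protein; signal as fold of the FLAG-GST-Venus control. One pass.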
row,Binder,AlphaScreen luminescence signal
1,B1,1.53
2,B2,1.12
